Measured values as given in paper PMC6919601, “Identification of Plasmodium dipeptidyl aminopeptidase allosteric inhibitors by high throughput screening” (PLoS ONE, 2019).
Among all 110,000 compounds or so, about 230 (0.21%) showed an effect of 50% or more. The list shows a part of the results.
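Also: 30 min substrate incubation versus DMSO and 10 µM JCP410 controls.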

The molecules below were run against DPAP1 (Plasmodium falciparum, UniProt Q8IIJ9) (assay: primary screen, percent inhibition; read by cleavage of a fluorogenic dipeptide substrate; higher = more effect of the substance).
DPAP1, sequence (Q8IIJ9 whole entry, looked up): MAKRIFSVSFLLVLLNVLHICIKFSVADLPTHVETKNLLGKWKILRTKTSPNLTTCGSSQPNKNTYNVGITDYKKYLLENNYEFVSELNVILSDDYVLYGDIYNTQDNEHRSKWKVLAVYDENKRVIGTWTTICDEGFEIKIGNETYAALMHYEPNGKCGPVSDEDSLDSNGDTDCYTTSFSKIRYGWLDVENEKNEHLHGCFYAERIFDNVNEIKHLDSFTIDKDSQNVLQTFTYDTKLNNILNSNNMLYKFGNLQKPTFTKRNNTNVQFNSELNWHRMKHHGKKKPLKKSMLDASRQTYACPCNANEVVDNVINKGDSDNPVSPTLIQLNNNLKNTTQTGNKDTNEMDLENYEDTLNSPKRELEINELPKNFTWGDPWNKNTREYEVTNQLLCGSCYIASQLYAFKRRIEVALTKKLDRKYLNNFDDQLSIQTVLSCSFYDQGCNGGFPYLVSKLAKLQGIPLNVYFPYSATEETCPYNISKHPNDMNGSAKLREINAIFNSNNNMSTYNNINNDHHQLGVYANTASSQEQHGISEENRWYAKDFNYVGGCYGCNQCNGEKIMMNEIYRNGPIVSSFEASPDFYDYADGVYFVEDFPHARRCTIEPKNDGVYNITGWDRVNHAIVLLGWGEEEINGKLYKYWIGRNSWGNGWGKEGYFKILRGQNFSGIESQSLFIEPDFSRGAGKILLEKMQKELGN
Parameters: species or system P. falciparum D10 trophozoite lysates; single well
`CCO/C(O)=C1\C(C)=NC2(O)c3ccccc3C(=O)C12O` (stereo not drawn) was tested, and the “% Inhibition @ 10 uM” value was 0.989%. In the case of `O=C(Nc1nc(-c2ccc(S(=O)(=O)N3CCCC3)cc2)cs1)c1ccccc1Cl`, the “% Inhibition @ 10 uM” value is reported as -4.66%. For `CC1CCN(S(=O)(=O)c2ccc(NC(=O)c3cccc(Br)c3)cc2)CC1`, the “% Inhibition @ 10 uM” value was 5.85%. For `O=C1N=C(N2CCOCC2)S/C1=C/c1ccccc1O`, the “% Inhibition @ 10 uM” value was 0.343%. In the case of `C=CCNC(=O)/C(=C/c1ccccc1)NC(=O)c1ccc(OC)cc1`, the “% Inhibition @ 10 uM” value is reported as 2.36%. In the case of `Cc1ccccc1S(=O)(=O)Cc1ccc(C(=O)N(C)C2CCCCC2)o1`, the “% Inhibition @ 10 uM” value is reported as 0.718%. With `COc1ccc(N(CC(=O)N2CCc3ccccc3C2)S(=O)(=O)c2ccc(C)cc2)cc1OC` the “% Inhibition @ 10 uM” value was 2.75%. In the case of `CCOC(=O)N1CCN(C(=O)C2CC(c3ccccc3OC)=NO2)CC1` (stereo not drawn), the “% Inhibition @ 10 uM” value is reported as 3.2%. For `CCn1c(C)cc(/C=C2/NC(=O)N(Cc3ccccc3F)C2=O)c1C`, the “% Inhibition @ 10 uM” value was -13%. `COc1ccc(-c2nc3c(c(SCC(N)=O)n2)Cc2cc(C)ccc2O3)cc1` was tested, and the “% Inhibition @ 10 uM” value was -6.52%. For `COc1ccccc1NC(=O)CC1Nc2ccccc2NC1=O` (stereo not drawn), the “% Inhibition @ 10 uM” value was 4.63%. For `Nc1nc2ccccc2n1Cc1ccccc1Cl`, the “% Inhibition @ 10 uM” value was -6.88%. `Oc1ccc(CNCCc2c[nH]c3ccccc23)cc1` was tested, and the “% Inhibition @ 10 uM” value was 2.02%. `N#Cc1nn(C(=O)c2ccccc2)c(N)c1C#N` was tested, and the “% Inhibition @ 10 uM” value was 2.57%. With `CC1=C(C#N)C(c2ccc(Cl)cc2)C2=C(O)CC(C)(C)CC2=N1` (stereo not drawn) the “% Inhibition @ 10 uM” value was -2.24%. In the case of `COc1ccccc1C1=NOC(COC(=O)c2ccc3ccccc3n2)C1` (stereo not drawn), the “% Inhibition @ 10 uM” value is reported as 3.54%. `O=C(CNS(=O)(=O)c1ccccc1)NCc1cccnc1` was tested, and the “% Inhibition @ 10 uM” value was 3.68%. In the case of `Cc1noc(C(=O)NCC(C)C)c1Cl`, the “% Inhibition @ 10 uM” value is reported as -3.45%. With `Cc1ccc(C)c(N(CC(=O)NCc2ccco2)S(=O)(=O)c2ccccc2)c1` the “% Inhibition @ 10 uM” value was -9.75%. With `COc1ccc(C2C(C#N)=C(N)Oc3cccc(O)c32)cc1` (stereo not drawn) the “% Inhibition @ 10 uM” value was -3.26%. `CC(C)(C)S(=O)(=O)c1ccc2nc3c(n2c1)CCCC3` was tested, and the “% Inhibition @ 10 uM” value was -1.76%. `CC(=O)Nc1ccc(NC(=S)NC(=O)c2ccccc2)cc1` was tested, and the “% Inhibition @ 10 uM” value was -1.8%. In the case of `Cc1ccc(C(=O)/C=C/c2cn(CC(O)CN3CCN(C)CC3)c3ccccc23)cc1` (stereo not drawn), the “% Inhibition @ 10 uM” value is reported as 3.24%. With `CCCCN(CC)C(=O)c1cc2ccc3cccnc3c2[nH]1` the “% Inhibition @ 10 uM” value was 3.44%. `CC(=O)c1ccc(C(=O)N(CCCN(C)C)c2nc3ccc(C)cc3s2)cc1` was tested, and the “% Inhibition @ 10 uM” value was -0.0255%. In the case of `CCOC(=O)N1CCC(NC(=O)CCc2c(C)nc3ncnn3c2C)CC1`, the “% Inhibition @ 10 uM” value is reported as -2.25%. `Cc1ccc2c(c1)-c1onc(C(=O)N3CCC(c4ccccc4)C3)c1CO2` (stereo not drawn) was tested, and the “% Inhibition @ 10 uM” value was 2.24%. `Cc1nc2cccc(C(=O)NCCc3c(C)[nH]c4ccc(F)cc34)c2o1` was tested, and the “% Inhibition @ 10 uM” value was -4.49%. In the case of `Cc1cc(C)cc(NCc2ccccn2)c1`, the “% Inhibition @ 10 uM” value is reported as 1.84%. With `CC1=C(C(=O)Nc2ccccc2C)C(c2ccc(F)cc2)C2=C(O)CCCC2=N1` (stereo not drawn) the “% Inhibition @ 10 uM” value was -4.72%. For `Cc1ccc(C(O)c2ccncc2)cc1` (stereo not drawn), the “% Inhibition @ 10 uM” value was 2.01%. In the case of `Cc1cc(C)n(-c2cc(N(C)C)nc(C)n2)n1`, the “% Inhibition @ 10 uM” value is reported as 12.6%. With `Cc1cc2nc(C)n(Cc3ccc(F)cc3)c2cc1C` the “% Inhibition @ 10 uM” value was 5.39%. With `CSC1=NSC2=NC(=O)/C(=C\c3coc4ccccc4c3=O)C(=N)N12` the “% Inhibition @ 10 uM” value was 1.15%. `O=C(O)/C=C\C(=O)Nc1cccc(Cl)c1` was tested, and the “% Inhibition @ 10 uM” value was -5.41%. In the case of `Cc1ccccc1Nc1nc2c(s1)CCCC2`, the “% Inhibition @ 10 uM” value is reported as 21.4%. For `COc1cc2c(cc1OC)C(C(=O)Nc1nc3ccccc3s1)C(c1cccs1)N(C)C2=O` (stereo not drawn), the “% Inhibition @ 10 uM” value was 7.57%. With `O=C(NCCc1c[nH]c2ccccc12)c1cc2c(s1)CS(=O)(=O)C2` the “% Inhibition @ 10 uM” value was -2.34%. With `Cc1c(C#N)c(=O)ncn1Cc1ccccc1` the “% Inhibition @ 10 uM” value was 0.98%. With `NC(=O)c1cc(S(=O)(=O)N2CCC(Cc3ccccc3)CC2)cs1` the “% Inhibition @ 10 uM” value was -2.85%. For `CC(=O)Nc1ccc(NC(=O)c2ccc(C)c([N+](=O)[O-])c2)cc1`, the “% Inhibition @ 10 uM” value was -2.47%. For `CS/C(S)=C(/c1nc2ccccc2[nH]1)[n+]1ccccc1`, the “% Inhibition @ 10 uM” value was 8.5%. In the case of `COc1ccc(-c2cc3c(nn2)-c2ccccc2C3=O)cc1`, the “% Inhibition @ 10 uM” value is reported as 1.24%. With `COCCCNC(=O)c1ccc(CSCc2ccc(C)cc2)o1` the “% Inhibition @ 10 uM” value was 0.514%. In the case of `COC(=O)C1=CN(CCc2ccc(OC)cc2)C=C(C(=O)OC)C1c1ccsc1`, the “% Inhibition @ 10 uM” value is reported as -5.26%. With `CCCSCCCNC(=O)CN(C)c1nnc(N2CCCC2=O)s1` the “% Inhibition @ 10 uM” value was -1.49%. In the case of `Cc1cccc(NC(=O)C2CC3CCC2C3)n1` (stereo not drawn), the “% Inhibition @ 10 uM” value is reported as -2.66%. For `CCNC(=O)CCn1nc(-c2ccc(C)cc2)c2ccccc2c1=O`, the “% Inhibition @ 10 uM” value was -2.98%. In the case of `Cc1ccc(-c2noc(CN(C(=O)Cc3ccc(Cl)cc3)C(C)C)n2)cc1`, the “% Inhibition @ 10 uM” value is reported as -3.99%. With `CCOc1ccccc1NC(=O)c1ccc(C)c(C)c1` the “% Inhibition @ 10 uM” value was -6.67%. In the case of `CC(=O)N1CCN(C2CCN(CCc3ccccc3)CC2)CC1`, the “% Inhibition @ 10 uM” value is reported as -1.81%. In the case of `Cc1nn(CC(=O)NCCCN2CCC(Cc3ccccc3)CC2)c(=O)c2cc3sccc3n12`, the “% Inhibition @ 10 uM” value is reported as 6.46%. For `Cc1cc(C)c(C)c(S(=O)(=O)NCC(=O)NCCc2ccccc2)c1C`, the “% Inhibition @ 10 uM” value was 4.42%. `O=c1cc(-c2ccccc2)oc2cc(OCc3ccccc3)cc(O)c12` was tested, and the “% Inhibition @ 10 uM” value was 1.48%. For `CCCCCn1c(=O)c(C(=O)Nc2ccc(OC)cc2)c(O)c2ccccc21`, the “% Inhibition @ 10 uM” value was -3.74%. In the case of `Cc1ccc(CNC(=O)CN(c2ccccc2Cl)S(=O)(=O)c2ccccc2)cc1`, the “% Inhibition @ 10 uM” value is reported as -7.69%. With `CCC1(C(O)(C#CCN2CCCCC2)c2ccccc2)CCCC1` (stereo not drawn) the “% Inhibition @ 10 uM” value was -2.15%. In the case of `O=C(ON1C(=O)c2ccccc2C1=O)C1CCCCC1`, the “% Inhibition @ 10 uM” value is reported as -2.45%. In the case of `CC(C)c1ccc(-c2c(NC(C)c3ccccc3)c(=O)c2=O)cc1` (stereo not drawn), the “% Inhibition @ 10 uM” value is reported as 4.62%. For `CCOc1ccccc1-c1nc(-c2ccc3c(c2)OCO3)no1`, the “% Inhibition @ 10 uM” value was 1.76%. With `O=CN1CCN(Cc2ccc(C(F)(F)F)cc2)CC1` the “% Inhibition @ 10 uM” value was -0.0908%. In the case of `Cc1ccccc1-c1cc(C(=O)O)c2c(-c3ccccc3)[nH]nc2n1`, the “% Inhibition @ 10 uM” value is reported as 0.244%. With `O=C(CN1C(=O)c2cccc3cccc1c23)Nc1ccccc1` the “% Inhibition @ 10 uM” value was -9.02%. For `COc1ccc(C2=CC(c3cc(Br)ccc3F)n3ncnc3N2)cc1` (stereo not drawn), the “% Inhibition @ 10 uM” value was -5.19%. In the case of `COc1ccc(S(=O)(=O)Nc2c(C)cccc2C)cc1OC`, the “% Inhibition @ 10 uM” value is reported as 2.4%. With `CC(Oc1ccc(Cl)cc1Cl)C(=O)Nc1ncccn1` (stereo not drawn) the “% Inhibition @ 10 uM” value was -5.28%.
